Out of some 360,000 compounds screened, about 2,600 (0.72%) were called active. Inconclusive results, whose numbers are uncertain, are shown with a selection of clear calls. Calls come from the whole dose curve; as a rule, active = well fitted inhibition curve with a large enough effect; inconclusive = small, poorly fitted or top-dose-only effect; inactive = no such curve, though single readings can be large or run the other way. Potencies of inconclusive entries are doubtful fits and often do not repeat.
test: Primary qHTS for Inhibitors of ATXN expression; settings: HEK-293 ATXN2-luciferase reporter, luminescence, 24 h; series mostly up to 57 µM; note: nearly all actives have a fitted effect of over 55% in size
Summary of the method: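 qHTS (up to 57 uM final) was run with 24 h compound exposure of reporter cells at 37 °C. Each well was multiplexed: SteadyGlo luminescence measured ATXN2-luciferase expression after a fluorogenic Gly-Phe-AFC viability readout (25 uM final).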
Potency is the fitted concentration of half-maximal effect; tags give direction and shape of the fitted curve.

Potency, inconclusive:
C=CCNc1nc(-c2sc(NC(=O)C(C)(C)C)nc2C)c(-n2cc(-c3ccccc3)nn2)s1 17.8 µM [inhibitor, single point], CC1CCN(C(=O)CSc2c3c(nc4cc(Cl)ccc24)CCCC3)CC1 39.8 µM [inhibitor, single point], CCOc1ccc(CCN2C(=O)C(=O)N([C@@H](CC(C)C)CN3CCC[C@@H]3CN3C(=O)C(=O)NC[C@@H]3CC(C)C)C[C@@H]2Cc2ccccc2)cc1 25.1 µM [inhibitor, single point], Cc1cccc(C)c1NC(=O)c1nc(S(=O)(=O)Cc2ccccc2)ncc1Cl 39.8 µM [inhibitor, single point], Cc1ccc(C)c(Cn2c3ccccc3c3cnn(CC(=O)NCCCN4CCOCC4)c(=O)c32)c1 20 µM [inhibitor, partial curve, poor fit], O=[N+]([O-])c1cc([N+](=O)[O-])c2oc(-c3ccccc3)c(Br)c2c1O 2.82 µM [inhibitor, single point], COc1cccc(C(=O)N2N=C(c3ccccn3)CC2(O)C(F)(F)F)c1 (centres undefined) 16.8 µM [inhibitor, partial curve, poor fit], OC(CN1CCN(Cc2ccc3c(c2)OCO3)CC1)c1c[nH]c2ccccc12 (centres undefined) 14.1 µM [inhibitor, partial curve, poor fit], O=C(C1CCN(Cc2ccc(Cl)cc2)CC1)N1CCN(C(c2ccccc2)c2ccccc2)CC1 20 µM [inhibitor, partial curve], CC(C)C(N)c1csc(Nc2ccc(C(=O)c3ccccc3)cc2)n1 (centres undefined) 31.6 µM [inhibitor, single point], O=C(Nc1ccc(Cl)cc1)Nc1csc([N+](=O)[O-])c1 39.8 µM [inhibitor, single point], COC(=O)[C@H]1C[C@H](OC(=O)NC2CC2)[C@@]2(O)CN(S(=O)(=O)c3ccc(C)cc3)CC2[C@H]1C(=O)OC (some centres undefined) 28.2 µM [inhibitor, partial curve], CN1Cc2c(N3CCOCC3)nc3sc(C(=O)c4ccc(Br)cc4)c(N)c3c2CC1(C)C 39.8 µM [inhibitor, partial curve, poor fit], CCCOc1ccc(/C=C/C(=O)Nc2ccc([N+](=O)[O-])cc2)cc1 14.1 µM [inhibitor, partial curve, poor fit], CCCn1c2ccccc2c2cnn(CC(=O)N(CCCOC(C)C)Cc3ccco3)c(=O)c21 28.2 µM [inhibitor, single point], COc1cccc2sc(N(CCCN(C)C)C(=O)c3ccc(S(=O)(=O)N4CCCc5ccccc54)cc3)nc12 39.8 µM [inhibitor, single point], COc1cccc(-c2cnc3c(NC(C)=O)cc(-c4ccc(C(=O)NC5CC5)cc4)cn23)c1 39.8 µM [inhibitor, single point], CCOC(=O)N1CCC(n2c(SCC(=O)c3ccccc3)nc3ccsc3c2=O)CC1 17.8 µM [inhibitor, partial curve], CCOC(=O)c1ccc(N2C(=O)c3[nH]nc(-c4ccc(OC)cc4)c3C2c2ccc(C)cc2)cc1 (centres undefined) 39.8 µM [inhibitor, single point], CCn1c(C)cc(/C=C2/SC(=S)N(CC(=O)O)C2=O)c1C 29.9 µM [inhibitor, single point], C/C(=N/NC(=O)c1cccs1)c1c(C)[nH]n(-c2nc3ccccc3s2)c1=O 17.8 µM [inhibitor, single point], Cc1ccc(CNC(=O)C2(C)CCN2C(=O)Cc2ccc(-c3ccccc3)cc2)cc1 (centres undefined) 35.5 µM [inhibitor, single point], CCCc1cc(C(=O)Nc2ccc(C(=O)c3ccc(F)cc3)cc2)n(C)n1 20 µM [inhibitor, partial curve], CN1C(=O)NC(c2ccc(O)cc2)C2=C1CN(c1cccc3ccccc13)C2=O (centres undefined) 3.16 µM [inhibitor, partial curve, poor fit], Cc1nc2c(c(C)nn2-c2ccccc2)c(C)c1CCC(=O)Nc1ccc(CN2CCCC2)cc1 3.16 µM [inhibitor, partial curve, poor fit], c1ccc2c(C[C@@H]3CNCCN3CC3CCCCC3)cccc2c1 39.8 µM [inhibitor, single point], COC(=O)C(=C/C(C)=C/c1cccnc1)C(=O)OC 39.8 µM [inhibitor, single point], Cc1ccc(-n2c(SCc3nc(-c4ccccc4C)no3)nnc2-c2ccncc2)cc1C 39.8 µM [inhibitor, single point], Cc1ccc(-c2csc(=Nc3ccccc3)n2CCCO)cc1 39.8 µM [inhibitor, single point], COc1cc(/C=C2/C(=N)N3C=CSC3=NC2=O)ccc1OCCCOc1cc(C)ccc1C 39.8 µM [inhibitor, single point], CCOC(=O)[C@H](CCc1ccccc1)N[C@@H](C)C(=O)N1[C@@H](C(=O)O)C[C@H]2CCC[C@@H]21 43.2 µM [inhibitor, single point], CCOC(=O)CSc1nc(-c2ccc(OC)cc2)ns1 14.1 µM [inhibitor, partial curve, poor fit], CCOc1ccc(Nc2c(S(=O)(=O)c3ccc(C)cc3)cnc3ccccc23)cc1 31.6 µM [inhibitor, single point], FC(F)(F)c1cccc(N2CCN(C(=S)NC3CCCC3)CC2)c1 15.8 µM [inhibitor, partial curve, poor fit], COc1cccc(C(=O)Nc2ccc3c(c2)CCCN3C(=O)c2cccs2)c1OC 35.5 µM [inhibitor, single point], CCOC(=O)c1c(Nc2ccccc2)nnc(-c2ccccc2)c1-c1ccccc1 39.8 µM [inhibitor, single point]

Potency, active:
O=C(O)c1cccc(-c2nnn(Cc3ccccc3Cl)n2)c1 11.2 µM, O=C(N/N=C/c1cc(Cl)ccc1O)C(=O)Nc1ccccc1OC(F)(F)C(F)F 12.6 µM, CCOC(=O)C1=C(Cc2ccc(Cl)cc2)C(=O)c2ccccc2C1=O 20 µM, COc1cccc(S(=O)(=O)NCc2ccc(C(=O)Nc3cccc(Cl)c3)cc2)c1 15.8 µM, CC(=O)N(C)C1(c2ccccc2)CCN(CCC[C@]2(c3ccc(Cl)c(Cl)c3)CCCN(C(=O)c3ccccc3)C2)CC1 21.7 µM, CCN(CC)c1ccc2nc3ccc(N)cc3[n+](-c3ccccc3)c2c1 12.6 µM

Potency, inactive:
Cc1[nH]n(-c2ccc([N+](=O)[O-])cc2)c(=O)c1C=NCCc1ccc(S(N)(=O)=O)cc1, CC(C)OC(=O)c1cc2c(ccn2C)n1CC(=O)N(Cc1ccccc1)c1ccccc1, CC1(OC(=O)CCc2ccccc2)C(=O)C=C2C=C(c3ccc(C#N)cc3)N(C3CCCCC3)C=C2C1=O (centres undefined), CCc1c(C(=O)N2CCCN(C)CC2)csc1C, CCn1c(CC(=O)Nc2cccc(OC)c2)nnc1SCC(=O)N1CCN(c2ccccc2)CC1, CCOc1ccc(CN2C(=O)c3ccccc3Sc3ccc(C(=O)N4CCN(C)CC4)cc32)cc1, O=S1(=O)c2ccccc2N(Cc2ccc(Cl)cc2F)c2ccccc21, Cc1ccn2c(Nc3ccc4c(c3)OCO4)c(-c3ccco3)nc2c1, O=C(Cn1c(=O)n(Cc2ccc(F)cc2)c(=O)c2sc3ccccc3c21)NCc1ccccc1Cl, CN1/C(=C\C(=O)C[n+]2cccc(Br)c2)C(C)(C)c2ccccc21, Cc1ccc2c(c1)N(Cc1ccccc1)C(=O)C(C)S2 (centres undefined), Cc1ccc(CCNc2nc3ccccc3c3nc(-c4ccccc4)nn23)cc1, CCCCC/C=C/C1=CC(=O)C[C@H](c2ccc3c(c2)OCO3)C1, CC(C)Nc1cc(C(C)(C)C)nc2c(-c3ccccc3)cnn12, Cn1c(CSc2ncccn2)nnc1SCC(=O)N1CCCCC1, CCOc1cccc(-c2cc(-c3n[nH]c(=S)n3CC)c3ccccc3n2)c1, COc1cccc(CNC(=O)CSc2ncc(S(=O)(=O)c3ccc(C)c(Cl)c3)c(=O)[nH]2)c1, Cc1ccc(N2CCN(C(=O)CCc3c(C)nc4ncnn4c3C)CC2)c(C)c1, Clc1cccc(-c2nc3c4ccccc4ccn3c2Cc2ccccc2)c1, O=C(N/N=C/c1ccco1)c1cccc(NC(=O)c2cccc(Cl)c2)c1, CC1NC(=O)NC1CCCCCC(=O)Nc1ccc(F)cc1 (centres undefined), CC(C)=CCc1c(O)ccc(C(=O)Cc2ccccc2)c1O, CCOC(=O)C1(C)CCN1C(=O)c1ccc(C)cc1 (centres undefined), COc1ccc(NC(=O)C(=O)NCCN2CCN(C(=O)c3ccco3)CC2)cc1, CC1CCN(C(=O)N2c3ccccc3Sc3ccccc32)CC1, O=C(Nc1nccs1)c1ccccc1N=Cc1ccccc1, Cc1ccc(-n2ncc3c(NCCc4ccccc4)ncnc32)cc1

— PubChem BioAssay AID1745845 (National Center for Advancing Translational Sciences (NCATS), 2022)
